Measurements published in PubChem BioAssay AID485344 (National Center for Advancing Translational Sciences (NCATS), 2010).
Hit rate of the full screen: of about 340,000 compounds, about 6,900 (2%) were called active. No stated cut-off is given here; in the data, active means inhibition above about 30%; inactive means below that, where a call was filed. This is a selection; strong and weak results do not stand in their true shares. The source gives no active or inactive call for entries shown without one. More than one record can exist for a structure, and the calls need not agree.

Biological target: D(2) dopamine receptor (Homo sapiens) (UniProt P14416)
Chain of UniProt P14416 (P14416 whole entry, looked up): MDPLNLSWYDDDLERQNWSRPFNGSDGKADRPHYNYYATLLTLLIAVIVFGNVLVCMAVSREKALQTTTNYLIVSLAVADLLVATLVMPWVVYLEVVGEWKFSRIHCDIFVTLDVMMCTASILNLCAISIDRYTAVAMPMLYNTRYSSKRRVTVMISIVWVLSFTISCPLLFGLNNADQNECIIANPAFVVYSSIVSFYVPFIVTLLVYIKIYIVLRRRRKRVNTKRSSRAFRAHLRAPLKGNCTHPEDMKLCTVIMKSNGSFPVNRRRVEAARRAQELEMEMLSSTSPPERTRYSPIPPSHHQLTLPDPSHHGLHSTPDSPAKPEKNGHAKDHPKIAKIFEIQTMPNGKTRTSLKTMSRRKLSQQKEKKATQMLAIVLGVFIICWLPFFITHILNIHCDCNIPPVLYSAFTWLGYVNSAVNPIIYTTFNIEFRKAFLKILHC
Test: HTS Assay for Allosteric Antagonists of the Human D2 Dopamine Receptor: Primary Screen for Antagonists; further: 0% is about no effect
Conditions: HEK293 TREx D2 cells, calcium flux, dopamine EC80; at 10 µM; stronger effect = higher value
How it was run: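 Compounds are added to dye-loaded, induced HEK293 T-REx cells coupled to calcium release via D2; after a 3 min kinetic read an EC80 dopamine stimulus is given and fluorescence is recorded for 3 more min.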

Structure (SMILES)	inhibition
COc1ccc(C(CNC(=S)NCc2ccccc2)N2CCCC2)cc1 (stereo unspecified)	active: 40.5%
O=C(CSc1nccn1Cc1ccc(F)cc1)Nc1nc2ccccc2s1	-3.33%
CN(C)CC/C=C1\c2ccccc2Sc2ccc(Cl)cc21	active: 84.8%
CCN(Cc1ccccc1)C(=O)C1CCN(S(=O)(=O)c2ccc3c(c2)CCCN3C(C)=O)CC1	-8.3%
CCOC(=O)c1c(C)n(-c2ccc(OC)cc2)c2ccc(OC(=O)COc3ccccc3)cc12	7.7%
Cc1ccc(-n2ncc3c(Nc4cccc(Cl)c4)ncnc32)c(C)c1	3.91%
O=C(Cn1nnnc1-c1ccccc1F)Nc1ccc(OC(F)(F)F)cc1	-21.8%
O=C(Cc1ccc(Cl)cc1)Nc1ccc(Br)cc1	active: 43.9%
Fc1ccccc1-c1nc(N2CCN(c3cccc(Cl)c3)CC2)c2ccccc2n1	-0.238%
COCCNC(=O)Cn1ccc2cc(S(=O)(=O)N3CCCCCC3)ccc21	18.3%
CCn1c(=O)c2c(nc3n2CCN3c2ccc(OC)cc2)n(C)c1=O	-4.79%
Cc1cccc(N2CCN(CC(O)COc3ccc(Cl)cc3)CC2)c1 (stereo unspecified)	active: 58.3%
Cc1ccc(-c2noc(CCC(=O)N(C)c3ccccc3F)n2)cc1	7.13%
Nn1c(SCC(=O)NC(=O)NC2CCCC2)nnc1-c1ccccc1F	active: 88.5%
Cc1ccc(C2CC(=O)Nc3cc4c(cc32)OCCO4)cc1Br (stereo unspecified)	-6.2%
Cc1ccc2oc(=O)cc(CN3CCN(C/C=C/c4ccccc4)CC3)c2c1	active: 58.4%
Cc1c(O)c(=O)ccn1C	active: 31.4%
O=C(Nc1ccc(S(=O)(=O)N2CCC(c3nc4ccccc4s3)CC2)cc1)c1ccccc1	11.8%
COC(=O)c1nnn(CC(=O)NC(=O)Nc2ccc(F)cc2)c1C(=O)OC	3.9%
CC(=O)N1CCc2cc(Br)cc(S(=O)(=O)N3CCC(C(=O)Nc4cccc(C)c4C)CC3)c21	-8%
Cc1ccc(CNC(=O)Nc2cc(C(=O)NCc3cccc(F)c3)ccc2N2CCCC2)cc1	-4.46%
CC1CCCCN1Cc1c(O)ccc2c(=O)c(-c3ccccc3Cl)c(C(F)(F)F)oc12 (stereo unspecified)	-0.846%
CCCCn1c(CNC(=O)C23CC4CC(CC(C4)C2)C3)nnc1SCC(=O)Nc1ccc(C)cc1	-6.09%
Cc1ccc(CN(C(=O)COc2ccccc2Cl)c2ccccn2)o1	-14.4%

Structure (SMILES)	inhibition
Cc1cccc(NC(=O)Cn2c(=O)n(Cc3ccc4c(c3)OCO4)c(=O)c3oc4ccccc4c32)c1C	12.9%
COc1ccc(Nc2c3c(nc4ccccc24)CCC3)cc1Cl	-19%
CCOc1ccc(NC(=O)Cn2c(=O)n(Cc3ccc4c(c3)OCO4)c(=O)c3ccc(C(=O)NC4CCCCC4)cc32)cc1	-10.1%
Cc1ccc(CNS(=O)(=O)c2ccc(C(=O)N(C)C)s2)cc1	9.99%
CCn1cc(S(=O)(=O)c2cc(C)cc(C)c2)c(=O)c2cc(F)c(N3CCCCC3)cc21	14.8%
CC(C)(C)C1CCc2c(sc(NC(=O)C3c4ccccc4Oc4ccccc43)c2C(N)=O)C1 (stereo unspecified)	5.82%
CCC(=O)N1c2ccc(S(=O)(=O)CCC(=O)NCc3ccccc3OC)cc2CC1C (stereo unspecified)	5.72%
CN(C(=O)CC(=O)Nc1ccc2nc3n(c(=O)c2c1)CCCCC3)c1ccccc1F	2.26%
COc1ccc(OC)c(S(=O)(=O)N2CCC(n3c(C)nc4cccnc43)CC2)c1	-5.11%
CCOC(=O)c1c(C)sc(-c2c(-c3ccccc3)[nH]c3[nH]c(=O)[nH]c(=O)c23)c1O	-6.27%
CN(Cc1ccccc1)C(=O)CSc1nnc(-c2cccc(Cl)c2)o1	-11.1%
CCc1ccc(CNC(=O)C2COc3ccc(OC)cc3C2)cc1 (stereo unspecified)	21.4%
COc1ccc(-c2noc(-c3ccc(N4CCOCC4)c([N+](=O)[O-])c3)n2)cc1	-15.6%
CCc1ccc(S(=O)(=O)NCc2ccc3c(c2)CCN3C(=O)c2ccc(C)cc2)cc1	17.2%
CC1=C(C(=O)Nc2ccccc2C)C(c2cccs2)n2nc(SCc3ccccc3)nc2N1 (stereo unspecified)	-10.2%
COc1ccc(NCc2cccn2-c2nnc(N3CCCCCC3)s2)cc1	-0.958%
Cc1ccc(S(=O)(=O)c2cn(Cc3ccccc3)c3cc(N4CCCCC4)c(F)cc3c2=O)cc1	5.62%
CC(C)CCOc1ccc(Cn2c(=O)oc3ccccc32)cc1	6.17%
COc1ccc(NC(=O)CSC2=Nc3ccccc3C3=NC(CC(=O)NCCc4ccccc4)C(=O)N23)cc1 (stereo unspecified)	11.5%
O=C(NCc1ccco1)c1ccc(Cn2c(SCc3ccccc3)nc3cccnc32)cc1	0.641%
CC(=O)c1ccc(NC(=O)C2CCN(c3nnc(C)c4c(C)n(-c5ccccc5)nc34)CC2)cc1	-1.05%
CC(C)(C)C1CCc2c(sc(NC(=O)c3cccc(Cl)c3)c2C(=O)NCc2ccco2)C1 (stereo unspecified)	19.5%
O=C1CC(c2ccc(Cl)cc2)CC(O)=C1C=NCCN1CCNCC1 (stereo unspecified)	active: 53.1%
CC(C)OCCCn1c(=O)c2ccccc2n2c(-c3ccccc3)nnc12	2.24%

Structure (SMILES)	inhibition
Cc1ccc(-c2cc(C(=O)N3CCN(S(=O)(=O)c4ccc(Br)cc4)CC3)[nH]n2)c(C)c1	-7.06%
O=C(Cc1ccccc1)Nc1sc2c(c1C(=O)Nc1cccc(Cl)c1)CCCCC2	2.65%
CCc1nn2c(=O)cc(COC(=O)Cc3ccccc3)nc2s1	1.96%
CCc1ccc(S(=O)(=O)c2cn(Cc3ccccc3)c3cc(N4CCCC4)c(F)cc3c2=O)cc1	1.73%
Clc1ccc2c(c1)-n1cc(-c3ccccc3)nc1CO2	16.5%
COc1ccc(Cl)cc1S(=O)(=O)Nc1ccc2[nH]c(=O)[nH]c2c1	-15.1%
Cc1ccc(N2CC(NC(=O)c3ccccc3C(F)(F)F)CC2=O)cc1C (stereo unspecified)	-21.1%
Cc1ccc(Cl)cc1N1CCN(C(=O)CCS(=O)(=O)c2cc(Br)cc3c2N(C(=O)C2CC2)CC3)CC1	-5.06%
COc1ccc(NC(=O)CSc2oc(-c3cccs3)nc2S(=O)(=O)c2ccccc2)c(OC)c1	-15.7%
Cc1ccc(CCNC(=O)Cn2c(-c3cccs3)cc3ccccc32)cc1	7.52%
Cc1cccc(CNC(=O)c2cc3cc(S(=O)(=O)N4CCCCC4)ccc3n2C)c1	11%
O=C(Nc1ccc(C(=O)OCc2cc(=O)n3nc(C4CC4)sc3n2)cc1)c1ccccc1	-12%
COc1ccc(C(C)=O)cc1COC(=O)CSCC(=O)Nc1ccc(C)cc1	active: 30.5%
COc1ccc(-c2noc(CC(=O)N(C)c3cccc(C)c3)n2)cc1	-3.23%
CCOC(=O)COc1ccc(CC)cc1C(=O)c1ccn2nc(-c3ccc(F)cc3)cc2n1	4.5%
Cc1ccc(NC(=O)CN2C=NS(=O)(=O)c3ccccc32)cc1	13.2%
CCOC(=O)c1cnc2ccc(Br)cc2c1NCCN1CCOCC1	-11.3%
C#CCn1c(=NC(=O)c2ccc(S(=O)(=O)N3CCCc4ccccc43)cc2)sc2cc(S(N)(=O)=O)ccc21	active: 47.5%
O=C(Nc1ccc2c(c1)CCCN2C(=O)c1cccs1)c1ccc(F)c(F)c1	-11.9%
COc1ccc(C(=O)c2cn(Cc3ccccc3F)c3cc4c(cc3c2=O)OCCO4)cc1OC	-2.73%
COc1ccccc1/C=C/c1nc(C#N)c(NC2CCCCC2)o1	-10.9%
COc1ccc(CNC(=O)CCCn2nc(C)n3c(cc4sccc43)c2=O)cc1	8.43%
Cc1cc(F)c(F)c(C(=O)N2CCC(C)CC2)c1Cl	active: 31.8%
COCCn1c(C)cc(O)c(C(c2ccccc2OC)N2CCN(c3ccccc3)CC2)c1=O (stereo unspecified)	4.82%

Structure (SMILES)	inhibition
COc1ccc(C(=O)NCCn2cc(SCc3ccc(C(F)(F)F)cc3)c3ccccc32)cc1OC	7.86%
COc1cccc(CNC(=O)C2CCCN(S(=O)(=O)N(C)c3ccc(F)cc3)C2)c1OC (stereo unspecified)	2.62%
Cc1cccc(NC(=O)CSC2=Nc3ccccc3C3=NC(CC(=O)NCc4cccs4)C(=O)N23)c1 (stereo unspecified)	7.68%
CCc1cccc(NS(=O)(=O)c2ccc3c(c2)CC(C)N3C(=O)C2CC2)c1 (stereo unspecified)	-5.04%
CCc1c(C)c2ccc(O)c(CN3CCN(c4ccc(F)cc4)CC3)c2oc1=O	4.61%
CCOCN(C(=O)Cn1c(COC)nc2ccccc21)c1c(C)cccc1CC	6.99%
COc1ccc(Cl)cc1NC(=O)CSc1nccn1-c1ccc(Cl)cc1	23.7%
COc1ccc(S(=O)(=O)CCc2nc3ccccc3s2)cc1	active: 59.1%
COc1ccc(S(=O)(=O)N2Cc3ccccc3CC2C(=O)Nc2cc(Cl)ccc2Cl)cc1 (stereo unspecified)	14.2%
O=C(NC1=NCCS1)c1cccc(S(=O)(=O)N2CCOCC2)c1	active: 34.5%
Cc1ccc(C)c(NC(=O)C2CCN(S(=O)(=O)c3c(C)noc3/C=C/c3cccs3)CC2)c1	17.6%
Cc1sc2c(c1C)c(=O)n(CCc1ccccc1)c(=O)n2Cc1ccc(C(C)(C)C)cc1	1.96%
COc1ccc(NC(=O)C2CSC3c4ccccc4C(=O)N23)cc1 (stereo unspecified)	active: 31.6%
CCn1c(CNC(=O)c2ccc(OC)cc2)nnc1SCC(=O)Nc1cc(C)ccc1C	-15.6%
Cn1c(/C(C#N)=C/c2ccccc2Br)nc2ccccc21	10.2%
COc1ccc(N2CCN(S(=O)(=O)c3ccc4c(c3)C(C(C)C)C(=O)N4)CC2)cc1 (stereo unspecified)	-2.12%
Cc1nc2cc(-c3cccc(F)c3)nn2c(C)c1CCC(=O)NCCc1ccccc1	-1.11%
CCOC(=O)COc1ccc(-c2nnn(CC(=O)Nc3ccccc3)n2)cc1	4.76%
Cn1c(=O)c2sccc2n2c(CCCC(=O)Nc3ccc(Oc4ccccc4)cc3)nnc12	4.81%
Cc1ccc(C)c(N2CCN(C(=O)c3cc(C)nc4c3c(C)nn4-c3ccccc3)CC2)c1	11.6%
CCOc1ccc(OCC(=O)Nc2ccc(S(=O)(=O)Nc3cc(C)on3)cc2)cc1	-1.93%
COc1cc(CN(C(=O)COc2ccc(F)cc2)c2ccccn2)cc(OC)c1OC	16.5%
COc1cc(NC(=O)CCN2CCN(CCO)CC2)cc(OC)c1	9.27%
CCc1nn(CC(=O)NCCc2ccc(SC)cc2)c(=O)c2cc3sccc3n12	-6.31%
